The values that follow come from ChEMBL document CHEMBL4888484, “Replenishing the malaria drug discovery pipeline: Screening and hit evaluation of the MMV Hit Generation Library 1 (HGL1) against asexual blood stage Plasmodium falciparum ,using a nano luciferase reporter read-out” (2022).

Structures are written as SMILES. Hit rate of the full screen: of about 150,000 compounds, about 540 (0.36%) showed an effect of 50% or more. This is one part of the list.

The % Inhibition is the relative decrease from the control value, in per cent.

For this test, the system named is Plasmodium falciparum. In words: Primary screen in NF54 nanoGlo assay, in single point, at 2uM, 72h; a lower Z score goes with more inhibition. Conditions: timepoint 72 hour. In kind it is functional, Erythrocyte.
For `O=C(ON1C(=O)CCC1=O)c1ccc(Cl)cc1Cl`, the “% Inhibition” value is on record as -12% and the Z score was 1.65.

`CCn1cc(NC(=O)NCc2ccc(N3CCCC3=O)cc2)nn1`: the “% Inhibition” value was found to be 0% and the Z score is -0.04.

On to `Cc1noc(Cl)c1CCC(=O)N1CC2CC1(C(N)=O)C2`, for which the “% Inhibition” value is on record as -3% and the Z score is 0.54.

Consider `NC(=O)N[C@@H](CC(=O)N1CCN(c2cccc(C(F)(F)F)c2)CC1)c1cccs1`, for which the “% Inhibition” value was -26% and the Z score is reported as 3.47.

With `Cn1cc(-c2noc(C3CC3c3cccnc3)n2)cn1` (stereo not given), the “% Inhibition” value was -3% and the Z score is recorded as 0.38.

On to `COc1ccc(OC)c(CCCNC(=O)N2CCC(C)(C#N)CC2)c1`, for which the “% Inhibition” value was 2% and the Z score is -0.19.

With `Cc1nc(C)c(CCN[C@@H](C)c2ccc3c(c2)COC3)s1`, the “% Inhibition” value was -15% and the Z score is reported as 1.62.

Regarding `CC(=O)N1CCO[C@@H](CNC(=O)c2ccc(-c3ccncc3C)cc2)C1`, the “% Inhibition” value worked out at 1% and the Z score is on record as -0.13.

`COc1cc(C(=O)OCC(=O)NCCC#N)cc(Cl)c1OCC(C)C`: the “% Inhibition” value is given as -4% and the Z score came out at 0.7.

Regarding `COC(=O)[C@H](NC(=O)Cc1c(C)n[nH]c1C)c1cc(C)cc(C)c1`, the “% Inhibition” value was -13% and the Z score amounted to 1.27.

On to `C[C@H]1CN(C(=O)CC(C)(C)CC(=O)O)CC(C)(C)O1`, for which the “% Inhibition” value is recorded as -12% and the Z score worked out at 1.37.

Turning to `CCN1CCn2cc(S(=O)(=O)NCc3ccccc3C(F)(F)F)cc2C1=O`, the “% Inhibition” value turned out to be 2% and the Z score was -0.29.

In the case of `Cc1cc2ncc(NS(=O)(=O)Cc3cc(F)ccc3F)cn2n1`, the “% Inhibition” value is reported as -8% and the Z score worked out at 1.09.

For `CS(=O)(=O)CCCNc1cc(CO)ccc1Br`, the “% Inhibition” value worked out at 14% and the Z score was -1.77.

With `CN1CCC2CCN(C(=O)Nc3cc(Cl)ccc3Cl)C2C1` (stereo not given), the “% Inhibition” value was -5% and the Z score came out at 0.62.

On to `CC(C)C(=O)N1CCc2ccc(OCc3ccc(C(=O)NC4CC4)o3)cc2[C@@H]1c1ccccc1`, for which the “% Inhibition” value is -21% and the Z score is recorded as 1.92.

`CCn1nc2c(c(C(F)F)cc(=O)n2CCC(=O)N2CCCc3cc(C)ccc32)c1C`: the “% Inhibition” value stood at 30% and the Z score is -3.37.

Take `CC(C)(CNC(=O)CCn1ccccc1=O)Cc1ccccc1`: the “% Inhibition” value is given as -9% and the Z score came to 1.27.

Consider `CC(C)(C)C[C@H](NC(=O)NC1CCOCC1)c1ccc(Cl)cc1`, for which the “% Inhibition” value was -12% and the Z score came out at 2.3.

`Cc1noc(C)c1CN[C@@H](Cc1ccc(Cl)cc1)c1ccccn1`: the “% Inhibition” value is recorded as -7% and the Z score is 1.12.

Take `Cc1nc(C)n(C2CN(c3ncnc4sccc34)C2)n1`: the “% Inhibition” value is 13% and the Z score is -2.02.

On to `O=C(NC1CCCC1)c1cccn1-c1nnc(N2CCCCCC2)s1`, for which the “% Inhibition” value is recorded as -10% and the Z score is reported as 1.48.

Turning to `COc1c(C)cc(C(=O)[C@H]2CCCN(c3cc(N)ncn3)C2)cc1C`, the “% Inhibition” value stood at 78% and the Z score is recorded as -15.48.

In the case of `CN(C)CC[C@H]1CN(C(=O)c2ccc3cccc(Cl)c3n2)CCO1`, the “% Inhibition” value was determined as 3% and the Z score is reported as -0.53.

As for `Cc1ccc2c(c1)NC(=O)c1cc(S(=O)(=O)N3CCCCC3)c(NC3CCCC3)cc1O2`, the “% Inhibition” value was -22% and the Z score worked out at 3.16.

Take `COC(=O)c1cc(NC(=O)N2CC[C@H]3CC[C@@H](C2)N3C)cc(C(=O)OC)c1`: the “% Inhibition” value is -3% and the Z score is recorded as 0.36.

Consider `Cc1nonc1C(=O)N1CCN(c2nccs2)CC1`, for which the “% Inhibition” value is given as 13% and the Z score is -1.51.

Regarding `N#Cc1cccc(S(=O)(=O)Nc2cccn3nc(C4CC4)nc23)c1`, the “% Inhibition” value is reported as 10% and the Z score is recorded as -1.19.

In the case of `CCc1nccn1CCNC(=O)c1ccccc1NC(=O)[C@@H](C)CC`, the “% Inhibition” value came out at 4% and the Z score is on record as -0.65.

For the compound `CC(C)c1nc(CN2CCC[C@H](O)c3cc(F)ccc32)no1`, the “% Inhibition” value is listed as -4% and the Z score turned out to be 0.54.

With `Cc1nc(C(=O)N[C@H]2CCN(c3ncccc3F)C2)c2ccccn12`, the “% Inhibition” value is -1% and the Z score is 0.08.

Take `N#Cc1ccsc1NC(=O)CCN1CCC[C@H]1c1ccc2c(c1)OCCCO2`: the “% Inhibition” value came to 4% and the Z score is recorded as -0.49.

On to `COCc1nc(CCNC(=O)C(C)C)no1`, for which the “% Inhibition” value came out at 4% and the Z score is reported as -0.48.

Turning to `Cc1csc([C@@H](C)CNc2ncnc3sccc23)n1`, the “% Inhibition” value is listed as -7% and the Z score came to 1.11.

For `O=C(CCn1ccccc1=O)Nc1ncccc1OCC1CCCCC1`, the “% Inhibition” value worked out at 11% and the Z score is recorded as -1.19.

Consider `CN(C)CC(C)(C)CNC(=O)CC1CCN(C(=O)OC(C)(C)C)CC1`, for which the “% Inhibition” value is reported as 5% and the Z score is listed as -0.47.

Take `O=C(Nc1cccn2cnnc12)N(Cc1ccsc1)C1CCCCC1`: the “% Inhibition” value is -14% and the Z score worked out at 1.56.

Regarding `CNC(=O)CN1CCC(C(C)(F)F)CC1`, the “% Inhibition” value was -2% and the Z score was 0.33.

Turning to `CCN=C(NCCc1nc(C)no1)NCc1ccc(OC)c(OC)c1`, the “% Inhibition” value was -8% and the Z score worked out at 1.11.

Regarding `COC(=O)[C@H]1CC[C@@H](NC(=O)OCc2ccccc2)C1`, the “% Inhibition” value was found to be 0% and the Z score worked out at 0.01.

On to `COc1cccc(-c2nccn2CCNc2ncccc2C)c1OC`, for which the “% Inhibition” value came to 5% and the Z score is listed as -0.58.

In the case of `CC(=O)N[C@H]1C[C@@H](c2[nH]c3ccc(Cl)cc3c2C)O[C@@H](C(C)C)C1`, the “% Inhibition” value is recorded as -5% and the Z score amounted to 0.9.

In the case of `Cc1cc(C)c2[nH]c(C(=O)N3CCCN([C@H]4COC[C@@H]4O)CC3)c(C)c2c1`, the “% Inhibition” value was -2% and the Z score is 0.34.

For the compound `Cc1nnc(NCCc2csc(N3CCCC3)n2)c(C#N)c1C`, the “% Inhibition” value is recorded as -5% and the Z score stood at 0.49.

`Cc1ccc(CN2C[C@@H](CO)[C@H](NC(=O)c3ccccc3)C2)o1`: the “% Inhibition” value is listed as -10% and the Z score is 1.44.

Turning to `Cc1cc(C(=O)N2C[C@H](C3CC3)[C@@H](N)C2)cs1`, the “% Inhibition” value is on record as -8% and the Z score is 1.06.

On to `Cn1cncc1CCNc1ccc(C#N)cn1`, for which the “% Inhibition” value was 2% and the Z score was -0.25.

As for `Cc1cc(NC(=O)CN2C(=O)CN(c3ccc(Br)cc3)C2=O)no1`, the “% Inhibition” value was -7% and the Z score was 1.13.

For `CN(C)S(=O)(=O)N1CC(Oc2ccccc2)C1`, the “% Inhibition” value was -7% and the Z score was found to be 1.14.

With `CN(Cc1ccccc1)C(=O)C[C@H]1CCN(C(=O)c2cnccn2)C1`, the “% Inhibition” value worked out at 38% and the Z score is listed as -5.54.

As to `CN1CCN([C@@H]2COC3(C2)CN(C(=O)Cc2ccccc2F)C3)CC1`, the “% Inhibition” value is -15% and the Z score stood at 2.3.

As to `O=C(OC1CCOCC1)N1CC[C@H](Oc2ccncn2)C1`, the “% Inhibition” value is -12% and the Z score came out at 1.84.

As to `CO[C@@H](CNC(=O)NC(C)C)c1ccccc1C`, the “% Inhibition” value was found to be 22% and the Z score is -2.74.

With `Cc1noc(CN(C)C(=O)c2cccc(S(=O)(=O)N3CCNCC3)c2)n1`, the “% Inhibition” value is on record as -24% and the Z score stood at 2.58.

As to `CCCCCC(=O)N[C@@H](C(=O)O)c1c(C)n[nH]c1C`, the “% Inhibition” value is -8% and the Z score came out at 1.02.
